Counter-ions that a name gives are not always drawn.
What was measured:
[1] = biological target: T1, succinate dehydrogenase (Mus musculus, UniProt Q8K2B3); experiment: 3-Nitropropionate inhibition, ^13C MRS before and after i.p. injection; format: in vivo
T1 construct: in a mouse before (spectrum A) and after (spectrum B) the mouse was injected with 3-nitropropionate; from tissue; host or cells: living mouse (whole animal, in vivo 13C MRS)
Description: 3-nitropropionate is a known irreversible inhibitor of succinate dehydrogenase.
FIG. 4 illustrates example ^13C MRS spectra illustrating hyperpolarized diethyl 1-^13C 2,3-d2 succinate in a mouse before (spectrum A) and after (spectrum B) the mouse was injected with 3-nitropropionate. […] The aqueous solution of 5 mg/ml of 3-nitropropionate (Sigma-Aldrich) was brought to a pH of 8.5 using a drop of 50% NaOH solution.

[2] = test system: TCA cycle; conditions: statement without a test; cited from earlier work
[3] = statement without a test; cited from earlier work
[4] = statement without a test; cited from earlier work; remark: listed apart in the source
[5] = has to be injected in a 20% ethanol aqueous solution; cited from earlier work

T1 sequence (Q8K2B3 43-664): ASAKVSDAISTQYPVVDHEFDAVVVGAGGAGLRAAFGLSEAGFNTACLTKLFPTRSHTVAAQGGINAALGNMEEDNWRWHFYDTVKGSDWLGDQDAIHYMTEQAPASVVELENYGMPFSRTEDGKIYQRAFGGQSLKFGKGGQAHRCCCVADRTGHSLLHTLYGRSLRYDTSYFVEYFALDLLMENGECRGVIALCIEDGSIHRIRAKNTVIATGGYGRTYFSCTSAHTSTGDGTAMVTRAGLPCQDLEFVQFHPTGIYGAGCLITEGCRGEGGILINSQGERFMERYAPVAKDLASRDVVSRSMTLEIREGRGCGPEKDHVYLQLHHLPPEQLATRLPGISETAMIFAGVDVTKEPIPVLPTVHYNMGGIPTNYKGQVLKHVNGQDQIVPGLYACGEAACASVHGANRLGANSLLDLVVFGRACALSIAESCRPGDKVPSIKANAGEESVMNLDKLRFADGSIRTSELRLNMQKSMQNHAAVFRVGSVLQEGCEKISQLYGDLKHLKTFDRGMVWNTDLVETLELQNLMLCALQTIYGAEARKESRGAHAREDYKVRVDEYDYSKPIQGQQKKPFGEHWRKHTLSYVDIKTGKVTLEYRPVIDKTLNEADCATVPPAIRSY
T1 sequence (Q9CQA3 31-282 partner): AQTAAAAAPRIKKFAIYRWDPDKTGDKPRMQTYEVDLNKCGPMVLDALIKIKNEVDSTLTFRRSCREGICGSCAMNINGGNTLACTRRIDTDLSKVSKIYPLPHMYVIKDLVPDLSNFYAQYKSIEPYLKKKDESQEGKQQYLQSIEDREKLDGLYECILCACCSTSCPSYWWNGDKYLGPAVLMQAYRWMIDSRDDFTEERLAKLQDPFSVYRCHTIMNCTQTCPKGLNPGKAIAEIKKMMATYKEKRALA
T1 sequence (Q9CZB0 30-169 partner): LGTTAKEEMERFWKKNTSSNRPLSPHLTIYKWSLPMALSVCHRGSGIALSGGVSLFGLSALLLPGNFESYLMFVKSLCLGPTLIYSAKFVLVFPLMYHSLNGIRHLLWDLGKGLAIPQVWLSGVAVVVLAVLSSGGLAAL
T1 sequence (Q9CXV1 57-159 partner): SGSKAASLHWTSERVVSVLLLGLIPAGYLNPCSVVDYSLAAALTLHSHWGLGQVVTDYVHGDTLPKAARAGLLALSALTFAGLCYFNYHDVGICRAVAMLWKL

| SMILES | metabolism [2] | toxicity [3] | also measured |
| --- | --- | --- | --- |
| O=C(O)CC[N+](=O)[O-] [3-nitropropionate] | – | – | downfield succinate resonance after 3-nitropropionate treatment ([1]; 200 μl of 5 mg/ml i.p., 20 minute wait, 10 μmol hyperpolarized diethyl 1-^13C 2,3-d2 succinate i.v.): significantly reduced; mice with a reduction to complete loss of the succinate peak ([1]; after 3-nitropropionate treatment): Three out of the four |
| CCOC(=O)/C=C/C(=O)OCC [Diethyl fumarate] | metabolized in the TCA cycle | non-toxic | transport across biological membranes [4]: crosses biological membranes |
| CCOC(=O)CCC(=O)OCC [Diethyl succinate] | – | non-toxic | – |
| [2H]C([2H])C([2H])([2H])[13C](=O)OCC(F)(F)C(F)F [TFPP, 2,2,3,3-tetrafluoropropyl-1-^13C priopionate-d2,2,3,3] | – | – | water solubility [5]: not very water soluble |
| CC[13C](=O)OCCO [^13C 2-hydroxy ethyl propionate, reference compound] | not metabolized | toxic | – |

Source: US9034928B2, “Methods for metabolic imaging” (IMAGNX, Inc., priority 2011, dated 2015)
